Variants at the background level are over-represented here.
B1: TPR 5TU (parent)
chain: GGAUCUUCUCGAUCUAACAAAAAAGACAAAUCUGCCACAAAGCUUGAGAGCAUCUUCGGAUGCAGAGGCGGCAGCCUUCGGUGGCGCGAUAGCGCCAACGUUCUCAACUAUGACACGCAAAACGCGUGCUCCGUUGAAUGGAGUUUAUCAUG

Variants of: B1
Assay: polymerase ribozyme fitness, log enrichment relative to wild type (log ratio); higher = more active; in vitro selection for triplet polymerase activity
Outline: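 One round of in vitro selection, in triplicate, was applied to PCR-built, transcribed mutant libraries of each subunit of a heterodimeric triplet polymerase ribozyme. The steps were annealing with a biotinylated primer, partner subunit and triplets, incubation frozen at −7 °C, gel excision of extended constructs, streptavidin-bead capture and RT-PCR. Fitness is the logarithm, base 2, of genotype enrichment over wild-type enrichment from inverse-variance-weighted replicate averages of Illumina-sequenced inputs and outputs, keeping genotypes with ≥10 input reads and ≥1 read per output.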

| Variant | polymerase ribozyme fitness (log ratio) |
| --- | --- |
| U6A U7G U31C G34A A41U | -3.68 |
| U6G G34C A52U A89G C93A A107U A115U A150C | ≤ -4.2 |
| U6A G25U | -1.78 |
| U6G U53C U55G A64G A91U | ≤ -4.2 |
| U6G C63G A64C C85G C95G U101G | ≤ -4.2 |
| U6C C27U U53A G80U C93U | ≤ -4.2 |
| U7G C27G C32G C76G A106C | ≤ -4.2 |
| U7C A24U A52U G71A U78A G94A | ≤ -4.2 |
| U6C C87A G88U C96A A120U C123U | ≤ -4.2 |
| U7A G11A A12C U13A U45C C51U A60C C76G G86U G92C U135C | ≤ -4.2 |
| U7C A24G G94A | ≤ -4.2 |
| U7G G83A A91U C131U | -3.4 |
| U6C C38A G59U C69A | -2.2 |
| C5U U13A C14A U53A U55A C76A A120U G124C | ≤ -4.2 |
| C5U U13C C95U U146G | -1.13 |
| U6C G11A A39U G50U C85U C103U | ≤ -4.2 |
| U7C A16C A91U A120C A138C | ≤ -4.2 |
| U6A U56G U61A C76U C79U C85G G100C C108A | ≤ -4.2 |
| U7C A19C G94C G124C A142U G143U | ≤ -4.2 |
| U6A U53G C93U G140A | ≤ -4.2 |
| C5U G11A A29U G70C G84A C96U | ≤ -4.2 |

| Variant | polymerase ribozyme fitness (log ratio) |
| --- | --- |
| U7A G34A C35G G59U C87U C93G G128C | ≤ -4.2 |
| U7A A22U A64G C79A G81A C85G | ≤ -4.2 |
| U7C G46A A52C C87A | ≤ -4.2 |
| U6G A20U A21G A24G A26U C51U G94U A98C A120G U139A G140U | ≤ -4.2 |
| U6A U56A | -0.431 |
| U6A G48A G62A U82C G126A A142G G152A | ≤ -4.2 |
| U6A A23U G84U C116A A150C | ≤ -4.2 |
| C8A A17C A26C A40C C87U U144G | ≤ -4.2 |
| U6A C87U | -0.846 |
| U7C A30U A49G G68C C85G A107U A110C U146G | ≤ -4.2 |
| U7A C38A U56A C72G U77G U82G A107U A110C | ≤ -4.2 |
| U6C A24C U55A U139C | ≤ -4.2 |
| C5U U15A A17G C18U G42A U53A U55A A60C G68C C79U A91C A97G | ≤ -4.2 |
| U7C G86U | -3.7 |
| U6G U13A A52G G65A G83U C116A | ≤ -4.2 |
| U6G C32U C43U C93G U139C | ≤ -4.2 |
| U6A C14G A16U G62C G86U | ≤ -4.2 |
| U7A A12G A23G U53A G92U C118A G140U | ≤ -4.2 |
| U6G A40G C57A A73U U77G G84U C132G U134A | ≤ -4.2 |
| U7A A26C G74A U127A | ≤ -4.2 |
| U7G U53G C87G A89G | ≤ -4.2 |

| Variant | polymerase ribozyme fitness (log ratio) |
| --- | --- |
| U7A A22U A40G U53C C57U A73C G83U A120U | ≤ -4.2 |
| U7G C18U C27A C36A C76G G92A U134C | ≤ -4.2 |
| U6A C10U U53C C54G C79G C93A C95U A113C | ≤ -4.2 |
| U6G A30C A89G C103G U127G | ≤ -4.2 |
| U6A U55G | -0.118 |
| C8A A16G A30G A47G G58A U78C G136U | ≤ -4.2 |
| U6G C14G A115U U148G | ≤ -4.2 |
| U7A A12C U33G G74U C93U A107U A120C | ≤ -4.2 |
| U6A C8A C54A C93G C118U U146A | ≤ -4.2 |
| U6A C18A A19U A37C C51U C75G G83A C96G G136U | ≤ -4.2 |
| C8A A16G C96A | ≤ -4.2 |
| U6G A29G | -3.97 |
| U6C C27U U145C | -3.08 |
| U7G A23G | ≤ -4.2 |
| U7G C14U U90C G143A | ≤ -4.2 |
| U7G U55A G94U A142C | ≤ -4.2 |
| U7C A30C U31A U45A C125U U135C | ≤ -4.2 |
| U6G A49G C99G A106G C116G C129A A138U U148G C149G | ≤ -4.2 |
| U7A A19U A22U G68A C85G | ≤ -4.2 |
| U6C A19U U61A C75G G141A U148C | ≤ -4.2 |
| U6A U13A C32U C51U G67U G133U G140U | ≤ -4.2 |

| Variant | polymerase ribozyme fitness (log ratio) |
| --- | --- |
| U7A A19C U53A C54U C76G C85U C149A | ≤ -4.2 |
| U7A C75A C116U | ≤ -4.2 |
| U6C C32A A49U G70U U82G C87U C105G | ≤ -4.2 |
| U6G C35G G94A G140C | ≤ -4.2 |
| U7C C18G G94A G117C | -3.67 |
| U7G C87A | ≤ -4.2 |
| U7A C38U C93U A137G U148C | ≤ -4.2 |
| U7A G25A G50U G84U | ≤ -4.2 |
| U6G U7A A49C G81C C85U A98U U104C | ≤ -4.2 |
| U7C A19C C57G C85U C96U U148A | ≤ -4.2 |
| U6G U45A A73G G86C C129A A150G | ≤ -4.2 |
| U6G C75A U82C G84U C85G C87U | ≤ -4.2 |
| U6G A120G | -0.399 |
| U7G C69A A91C A107U U144C A150G | ≤ -4.2 |
| U7A U53A U56A | ≤ -4.2 |
| U6A A23G A52U A122G | ≤ -4.2 |
| U7G U9A A16G A20G A21U U31G A52C U56A G86U U134C | ≤ -4.2 |
| U7G C8U U15G A17U C38A G48U G92C | ≤ -4.2 |
| U7A A47C G83C G88U A113G C116A | ≤ -4.2 |
| U6C A24C C87A A107G | ≤ -4.2 |
| U7C A40G G42U C85A G112C C123A | ≤ -4.2 |

Reference: the RNAGym collection of RNA variant scans (doi:10.1073/pnas.2313332121)
